# Data from article PMC12136788.
# The list shows a part of the results.
# B1: ENSG00000198589:be:win_6201|CDS|ENSG00000198589|bound_else_gene|NA|bound_elsewhere_windowed (ssRNA)
# RNA: GGGAGUUCUACAGUCCGACGAUCUAGCCUGAGCACACCAGCUCAGCUUGUGGCCCCCUCUGUUGUAGUAAAGGGCACUCUUUCUGUCACCUCCUCCGAACUCUAUUUUGAGGUGGAUGAAGAGGAUCCUAACUUCAAAAAAAUCAACAGAGGAUUGAGCAUCA
# B2: ENSG00000136451:be:win_801|CDS|ENSG00000136451|bound_else_gene|NA|bound_elsewhere_windowed (ssRNA)
# RNA: GGGAGUUCUACAGUCCGACGAUCUGCUGCCUUUGCCACCAAAGACAGACUGCGGACACACAUGGUGCGCCAUGAAGGCAAGGUAUCAUGUAACAUCUGUGGGAAGCUCCUGAGUGCAGCAUACAUCACCAGCCACUUAAAGACCAACAGAGGAUUGAGCAUCA
# B3: chr15:57953423:57955269:-|three_prime_utr|ENSG00000128918|control|control|control (ssRNA)
# RNA: GGGAGUUCUACAGUCCGACGAUCGAAGGCCAAGAAGGAGGAUGAAGCCCAGCCUGCACGUCUGUCCCUCUCUGCUUUCUCUGUAGGGCCCAGCUCUCAGGAAUACAAAGUUGAGCCACGGUCCUUACUUAAAGAUUGAAAAGACAACAGAGGAUUGAGCAUCA
# B4: chr13:44143149:44143917:-|three_prime_utr|ENSG00000139656|control|control|control (ssRNA)
# RNA: GGGAGUUCUACAGUCCGACGAUCUCAGGCAAGACUCAGGACUGCUCUGGACAUUCAGAAGCUGAGUGUGCAAGUGUGCUGUGUAGUUCAAGGCCACCACCACUGAAGAGGCCAAGGACACCUUAGUAGGAAUUCUAACCUGGCCAACAGAGGAUUGAGCAUCA
# B5: chr4:56448489:56448593:+|CDS|ENSG00000128050|unk|total|mutant (ssRNA)
# RNA: GGGAGUUCUACAGUCCGACGAUCCCCACAGUGGUCUGAGGAACAGCUGAUUGCUGCAAAAUUUUGCUUUGCUGGACUUCUUACCGGCCAGACUGAAGUGGAUAUCAUGAGUCAUGCUACACAGGCUAUAUUUGAAAUACUGGACAACAGAGGAUUGAGCAUCA
# B6: chr20:38750096:38750197:+|CDS|ENSG00000101442|unk|FALSE|unique (ssRNA)
# RNA: GGGAGUUCUACAGUCCGACGAUCGCAAAUGAUGUCUGAGCUUCUUUUUGAGUGCUACGGGAUUCCCAAGGUUGCCUAUGGAAUAGACAGCCUCUUCAGCUUCUACCACAAUAAGCCAAAGAACUCGAUGUGCAGUGGGCUAAUCAACAGAGGAUUGAGCAUCA
# B7: chr6:110632029:110632161:-|CDS|ENSG00000155111|control|control|control (ssRNA)
# RNA: GGGAGUUCUACAGUCCGACGAUCCAUGGGUUUUGCCAGAUUAUUCAAUUCUCCUCUAAAGCCACUAGCAGAUUUGGAUCCAGUAGUUGUGACAUUUUGGUAUCGGGCUCCAGAACUUUUGCUUGGUGCAAGGCAUUAUACAAACAACAGAGGAUUGAGCAUCA
# B8: ENSG00000070961:be:win_4651|3pUTR|ENSG00000070961|bound_else_gene|NA|bound_elsewhere_windowed (ssRNA)
# RNA: GGGAGUUCUACAGUCCGACGAUCACAUGUUAGUUUAGUGAUGUCUUGGUGAACUGUGAGUGAACUGUAUUGAUUUUUCUAAUCUUUAGAGACCUUCACACAGCAUGAGGGCUGUUGGCAUUUUGAAAAAGGUUAAUAAGUAGACAACAGAGGAUUGAGCAUCA
# B9: chr18:9283235:9283336:+|3pUTR|ENSG00000101745|msi1|FALSE|bound_elsewhere (ssRNA)
# RNA: GGGAGUUCUACAGUCCGACGAUCCUGAUGGUUCAACCAGAGGUCUGGGAAAUAGCACUGUUGGCCCAAACAGAACAGGCUUUUAGAAGAUAAAAGCGACAAGAAGGAAUCUGGUGAAUUUUAGUCAUCCCAGCUUUUUAGUCUCAACAGAGGAUUGAGCAUCA
# B10: ENSG00000198589:be:win_8601|3pUTR|ENSG00000198589|bound_else_gene|NA|bound_elsewhere_windowed (ssRNA)
# RNA: GGGAGUUCUACAGUCCGACGAUCAAGUACCUGGAGCAUCAUUCUCUUCUACCACAUCUGAAUGUAACUUAAAUUUGCUCAAAGAAGCAAAAUAUUUUUUAAAGUUAUUAAUAAUUGCUAUUUUUGUAGUCUUUGCUUGACUUUCAACAGAGGAUUGAGCAUCA
# B11: ENSG00000124766:be:win_2301|3pUTR|ENSG00000124766|bound_else_gene|NA|bound_elsewhere_windowed (ssRNA)
# RNA: GGGAGUUCUACAGUCCGACGAUCGCUGGGCCUCCGCCUUCUUUUCUACGUGAAAUCAGUGAGGUGAGACUUCCCAGACCCCGGAGGCGUGGAGGAGAGGAGACUGUUUGAUGUGGUACAGGGGCAGUCAGUGGAGGGCGAGUGCAACAGAGGAUUGAGCAUCA
# B12: chr3:165187899:165190830:-|CDS|ENSG00000121871|control|control|control (ssRNA)
# RNA: GGGAGUUCUACAGUCCGACGAUCAAAUGGUGGGGUGGUGCUGUUUCCUCCUGGGGGAGGCUGUGGUAGUGGCAGUAUGCUACUAGAUCGAGAGAGGCCACAGCCUGCCCCCUGCACAGUGGGAUUUGUGGACUGUCUCUAUGGCAACAGAGGAUUGAGCAUCA
# B13: ENSG00000198589:be:win_9001|3pUTR|ENSG00000198589|bound_else_gene|NA|bound_elsewhere_windowed (ssRNA)
# RNA: GGGAGUUCUACAGUCCGACGAUCUUCUUCAGCACUAAUAUUUCUGGGAUUUAAAUAGUAAUGUUUAAAUUAUGGUAAAUGUAAUUUAAAACAUCUCAAUUAAGUCUGUCUAUCAAUAUUGUUCUUCAAGCAUGUUUUAGACCUCAACAGAGGAUUGAGCAUCA
# B14: chr2:121605696:121605828:-|CDS|ENSG00000074054|unk|total|mutant (ssRNA)
# RNA: GGGAGUUCUACAGUCCGACGAUCGACCGACUAUUUCUCAGACAAACAGAAGUCUGCUGACCUUGAGCAUGACCAGACCAUGUCCGAUAAACUUGUGGAUGGACUUGCUACCUCUUGGGUGAACUCCCGCAAUUACAAGGUAAGCAACAGAGGAUUGAGCAUCA
# B15: chr2:148946928:148947042:+|CDS|ENSG00000168280|unk|FALSE|bound_elsewhere (ssRNA)
# RNA: GGGAGUUCUACAGUCCGACGAUCGAAUGAACACAGCUCUAGAAGUCACAGUAUCUUCCUGAUAAAUAUUAAACAAGAGAAUGUAGAGACUGAAAAAAAACUCAGUGGGAAACUUUAUUUGGUUGAUUUGGCUGGGAGCGAAAACAACAGAGGAUUGAGCAUCA
# B16: chrX:71101288:71101389:+|CDS|ENSG00000184481|unk|FALSE|unique (ssRNA)
# RNA: GGGAGUUCUACAGUCCGACGAUCGGAGGCCCUGCUCACCUCUGAUACGCCACCACCCCCUGCUGACGUCCUCAUGACCCAGGUAGAUCCCAUUCUGUCCCAGGCUCCGACUCUUCUGUUGCUGGGGGGGCUUCCUUCCUCCAGCAACAGAGGAUUGAGCAUCA
# B17: ENSG00000136451:be:win_1551|CDS_3pUTR|ENSG00000136451|bound_else_gene|NA|bound_elsewhere_windowed (ssRNA)
# RNA: GGGAGUUCUACAGUCCGACGAUCAUCACCGCCUUGGUAAACAGUAUUAUAAAAUCAAAAUAUGGGUAAAAGUAAAUAUUUACCAGCAACUUAACUUUUAGUUGAUUAAAGCAAAAAGUAAACCAUGAAAUUGGGAGAUUUUAUCAACAGAGGAUUGAGCAUCA
# B18: chr4:138169334:138169435:-|3pUTR|ENSG00000151012|msi1|total|mutant (ssRNA)
# RNA: GGGAGUUCUACAGUCCGACGAUCCCAUUUCACGCAGAAAAAAAGUCAGCCAGUAAUUAAGAAAAAAAGUGAUGGAGAUUAAGCCGUAUUUUGGCUUAUUUUCCGGACUCAUCAUGAGAAGACACAGUUCCUUUAAUCAGGAAACAACAGAGGAUUGAGCAUCA
# B19: chr4:145760401:145760502:-|3pUTR|ENSG00000151612|unk|FALSE|unique (ssRNA)
# RNA: GGGAGUUCUACAGUCCGACGAUCUCCGUACUUUUCUCUGAAAGGAAUCUUGUCUUGUUAAACCCUAAAGAGAGUGUCCUUAAUAGCAAUCAGCACUUGUAAGCUUAUAUACUGGUGCAUUUGGUUUUCUGUUGGGUGAAUGCGCAACAGAGGAUUGAGCAUCA
# B20: chr22:40826605:40826706:-|CDS|ENSG00000100380|unk|FALSE|bound_elsewhere (ssRNA)
# RNA: GGGAGUUCUACAGUCCGACGAUCCACCAAAUUACAGGUCUAAAUAAGAGAUGGAAUUUAGGAUAAUAAACUUACUGACCCAGUAGGACACUUUUUAAAUACUAAUGAACCCUUUCUUUUCAGGAUCCAGAAGUUAUGGUGGCUCAACAGAGGAUUGAGCAUCA
# B21: ENSG00000198589:be:win_7851|CDS|ENSG00000198589|bound_else_gene|NA|bound_elsewhere_windowed (ssRNA)
# RNA: GGGAGUUCUACAGUCCGACGAUCAAGAUUGAUCCAAGUGGUGUUUGGCCAUUGGGAUGUCGUCACUUGCCUUGCUCGUUCUGAGUCAUAUAUUGGGGGAAAUUGCUACAUUCUCUCAGGGUCACGUGAUGCAACUCUUUUGCUCAACAGAGGAUUGAGCAUCA
# B22: ENSG00000111670:stop:overlap|stop_codon|ENSG00000111670|stop_codon|NA|stop_codon (ssRNA)
# RNA: GGGAGUUCUACAGUCCGACGAUCGGAAGAUAUUUCCCAGAAGGAGGAUACACAAAGAAGCUAGUCCCAAUCGAAUCAGAGUAUAGAAGAUCUUCAUUUGAAAACCAUCUACCUCAGCAUUUACUGAGCAUUUUAAAACUCAGCCAACAGAGGAUUGAGCAUCA
# Biological target: MSI1 full-length (mouse, UniProt Q61474 1-362)
# Experiment: nsRBNS (natural sequence RNA bind-n-seq); RBNS binding buffer (assumed for nsRBNS): 25 mM Tris pH 7.5, 150 mM KCl, 3 mM MgCl2, 0.01% Triton X-100, 500 ug/ml BSA, 20 U/ml SUPERase-In, 4 C; UNK is unkempt and MSI1 is Musashi-1; names of the RNAs are library labels; protein concentration not given here; high values mean tight binding
# UniProt Q61474, sequence (Q61474 whole entry): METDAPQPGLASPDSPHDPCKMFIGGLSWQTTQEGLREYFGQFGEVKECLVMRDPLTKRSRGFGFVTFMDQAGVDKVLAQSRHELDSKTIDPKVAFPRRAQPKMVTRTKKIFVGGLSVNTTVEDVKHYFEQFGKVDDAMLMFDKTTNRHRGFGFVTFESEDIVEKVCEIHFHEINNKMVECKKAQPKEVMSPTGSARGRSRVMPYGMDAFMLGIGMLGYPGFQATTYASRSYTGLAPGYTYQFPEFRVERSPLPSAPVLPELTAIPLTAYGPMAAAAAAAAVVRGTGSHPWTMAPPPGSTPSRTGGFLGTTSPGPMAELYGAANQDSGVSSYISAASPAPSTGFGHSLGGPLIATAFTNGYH
row,Binder,binding signal [enrichment R]
1,B1,0.432
2,B2,0.36
3,B3,0.4
4,B4,0.524
5,B5,0.307
6,B6,0.313
7,B7,0.842
8,B8,28.3
9,B9,0.852
10,B10,1.11
11,B11,0.602
12,B12,0.675
13,B13,0.954
14,B14,0.532
15,B15,0.88
16,B16,0.429
17,B17,0.878
18,B18,0.883
19,B19,0.399
20,B20,0.448
21,B21,0.269
22,B22,1.52
